Assay in all cases: Primary Screen for Target Class Profiling of Small Molecule Inhibitors of Methyltransferases
Experiment [1] deals with Glycine N-methyltransferase (Homo sapiens) (UniProt Q14749). The following applies: purified enzyme, MTase-Glo SAH luminescence; measured here: GNMT inhibition; at 40 µM; stronger effect = lower value. The procedure, abridged: (§1)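 Each enzyme was reacted with SAM and its substrate, with compounds tested once at 40 uM; SAH formed was read by MTase-Glo luminescence.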
The target in experiment [2] is Guanidinoacetate N-methyltransferase (Homo sapiens) (UniProt Q14353). Particulars: purified enzyme, MTase-Glo SAH luminescence; measured here: GAMT inhibition; at 40 µM; stronger effect = lower value. In short, it runs like this: as §1
In experiment [3] the target is Histamine N-methyltransferase (Homo sapiens) (UniProt P50135). Particulars: purified enzyme, MTase-Glo SAH luminescence; measured here: HNMT inhibition; at 40 µM; stronger effect = lower value. The procedure, abridged: as §1
In experiment [4] the target is Nicotinamide N-methyltransferase (Homo sapiens) (UniProt P40261). The following applies: purified enzyme, MTase-Glo SAH luminescence; measured here: NNMT inhibition; at 40 µM; stronger effect = lower value. The procedure, abridged: as §1
Experiment [5] concerns the target Phenylethanolamine N-methyltransferase (Homo sapiens) (UniProt P11086). Particulars: purified enzyme, MTase-Glo SAH luminescence; measured here: PNMT inhibition; at 40 µM; stronger effect = lower value. In short, it runs like this:
as §1

These results are taken from PubChem BioAssay AID1745853 (National Center for Advancing Translational Sciences (NCATS), 2022).

The list shows a part of the results. The main result of the screen is listed elsewhere. These columns were measured beside it and carry no call.
On the % scale 0 is the no-effect control and ±100 the full control effect.

In the case of `Cc1nccn1CCCC(=O)N1CC[C@](C)(O)[C@H](C)C1`, the activity change, negative = inhibition in experiment [1] was -0.88%; in experiment [2], -0.73%; in experiment [3], 0.821%; in experiment [4], -4.02%; in experiment [5], -0.171%.
On the same counts, the results for `CCN(CC)CCOC(=O)C1(C2CCCCC2)CCCCC1` are -1.33%, 12.3%, 3.01%, -10.9% and 2.06%.
On the same counts, the results for `CCNC(=O)N1CCC(NC(=O)c2cccc(CCC(C)(C)O)c2)CC1` are -3.31%, -5.45%, -1.26%, -5.69% and -6.17%.
In the case of `CC1(C)OC(=O)C(OCC2CC2)=C1c1ccc(S(C)(=O)=O)cc1`, the activity change, negative = inhibition in experiment [1] was -0.656%; in experiment [2], -8.44%; in experiment [3], 10.8%; in experiment [4] it was -11.6%; in experiment [5] it was 1.78%.
Turning to `CC(C)NC(=O)N1CCN(S(C)(=O)=O)[C@@H](C(=O)N[C@H](Cc2c[nH]c3ccccc23)C(N)=O)C1`, the activity change, negative = inhibition was -5.24% in experiment [1]; -10.7% in experiment [2]; -1.8% in experiment [3]; -14% in experiment [4]; -2.46% in experiment [5].
`COc1cc2c(Nc3ccc(Cl)c(Cl)c3F)ncnc2cc1OCC1C[C@@H]2CN(C)C[C@@H]2C1` (some centres not stated): the activity change, negative = inhibition was -50.2% in experiment [1] and -83% in experiment [3].
As to `CCCc1cc(C)[nH]c(=O)c1CNC(=O)c1cc(-c2ccc(N3CCN(C(C)C)CC3)nc2)cc2c1cnn2C(C)C`, the activity change, negative = inhibition in experiment [1] was -4.15%; in experiment [2] it was 21.4%; in experiment [3], -25.8%; in experiment [4] it was -29.7%; in experiment [5], 5.83%.
On the same counts, the results for `COC(=O)C1=COC(OC2OC(CO)C(O)C(O)C2O)C2C1CC(OC(=O)C(O)CC(=O)O)C2C` (configuration not stated) are 4.07%, 6.08%, 9.76%, -3.69% and 5.09%.
Consider `O=C(CN1C(=O)NC2(CCCCC2)C1=O)Nc1ccc2c(c1)OCCO2`, for which the activity change, negative = inhibition in experiment [1] was -7.44%; in experiment [2], -9.96%; in experiment [3], -5.02%; in experiment [4], -14.8%; in experiment [5], 4.8%.
On the same counts, the results for `COc1cccc(-c2cn(-c3ccc(CCN4CCC(O)CC4)cc3)c3ncnc(N)c23)c1` are -79.6%, -69.5%, -89%, -93.7% and -86.4%.
In the case of `COc1ccccc1N1CCN(S(=O)(=O)c2ccc3[nH]c4c(c3c2)CCCC4)CC1`, the activity change, negative = inhibition in experiment [1] is -4.1%; in experiment [2], 2.91%; in experiment [3], -1.79%; in experiment [4] it was -4.48%; in experiment [5], 0.922%.
On the same counts, the results for `C#C[C@]1(O)CC[C@H]2[C@@H]3CCC4=C/C(=N/O)CC[C@@H]4[C@H]3CC[C@@]21CC` are -4.38%, 6.79%, 3.22%, -25.1% and -4.7%.
On the same counts, the results for `Cc1cc(CN(C)C(=O)c2cc(COc3ccc(F)cc3F)on2)n[nH]1` are -0.194%, 1.17%, 2.35%, -0.991% and 0.927%.
Taken in the same sequence, the figures for `CC1(C(=O)NC2CCCCC2)Cn2c(ccc2-c2ccccc2)C(=O)N1CCCN1CCOCC1` (configuration not stated) were 10.4%, 1.11%, 7.54%, 7.46% and 3.3%.
Take `C[N+]1(C)CCC(OC(=O)C(c2ccccc2)c2ccccc2)CC1`: the activity change, negative = inhibition in experiment [1] was 3.41%; in experiment [2], 6.79%; in experiment [3], 14.9%; in experiment [4], -7.49%; in experiment [5] it was 2.07%.
Taken in the same sequence, the figures for `Cc1ccc(C2c3cccn3-c3sc4c(c3CN2C(=O)Nc2ccccc2F)CCCC4)cc1` (configuration not stated) were -6.9%, -11.4%, -3.31%, -13.9% and -4.65%.
Taken in the same sequence, the figures for `CC(C)C(=O)N1CCN(CCn2nc3n(c2=O)CCCC3)CC1` were 95.7%, -10.7%, -3.6%, -11.1% and 5.43%.
Taken in the same sequence, the figures for `COc1ccc(-c2nc(C(C)C)nc3c2CCN([S+](=O)([O-])c2c(C)noc2C)CC3)cc1` were 1.3%, -1.15%, -0.215%, -0.025% and 5.34%.
On to `COc1nc2nc(CCc3ccccc3)n(C)c2cc1-c1cncnc1`, for which the activity change, negative = inhibition was -12% in experiment [1]; -3.79% in experiment [2]; -6.35% in experiment [3]; -24.7% in experiment [4]; -13.7% in experiment [5].
On to `Cc1nc2c(c(-c3ccc(Cl)cc3)n1)CCN(C(=O)Cc1cccc(Cl)c1)CC2`, for which the activity change, negative = inhibition was -9.48% in experiment [1]; -5.82% in experiment [2]; -2.2% in experiment [3]; -12.2% in experiment [4]; -0.357% in experiment [5].
Taken in the same sequence, the figures for `CCC(=O)N1CCC(n2nccc2NC(=O)Nc2ccccc2Cl)CC1` were -3.77%, -4.52%, -1.93%, -8.59% and -3.33%.
Taken in the same sequence, the figures for `O=C1C[C@H]2CC[C@@H](CN1)N2Cc1ccc(OCc2ccccc2)cc1` were -7.16%, -7.89%, -4.82%, -10.9% and -5.9%.
Taken in the same sequence, the figures for `NC(=O)c1ccc(N(C(N)=O)c2c(F)cccc2F)nc1-c1ccc(F)cc1F` were -3.53%, -4.82%, 1.76%, -17.1% and -12.4%.
As to `COc1cc2occc2c(O[C@@H]2O[C@H](CO)[C@@H](O)[C@H](O)[C@H]2O)c1CCC(=O)O`, the activity change, negative = inhibition in experiment [1] was 0%; in experiment [2] it was 7.14%; in experiment [3], 10.2%; in experiment [4], -6.4%; in experiment [5], 2%.
Taken in the same sequence, the figures for `CC1(C(=O)NCc2ccccc2Cl)Cn2cnc(C(=O)NCCc3cccs3)c2C(=O)N1C1CC1` (configuration not stated) were 1.92%, 0.502%, 5.84%, -2.6% and 3.27%.
Taken in the same sequence, the figures for `COc1ccc(C(=O)Nc2ccc([C@H]3OCC(=O)N[C@@H]3CO)cc2)cc1` were -3.71%, -5.49%, -1.6%, -7.84% and -3.65%.
Taken in the same sequence, the figures for `Cc1ccc(Cn2nc3n(CCc4ccccc4)c(=O)c4ccccc4n3c2=O)cc1` were -1.2%, -0.46%, 6.37%, 2.46% and 0.001%.
On to `O[C@@H]1CO[C@H]2[C@@H]1OC[C@@H]2n1nnnc1SCc1ccco1`, for which the activity change, negative = inhibition in experiment [1] is -7.83%; in experiment [2], -0.492%; in experiment [3] it was -4.37%; in experiment [4], -7.01%; in experiment [5], -21.3%.
Take `C=CC1(C)C=C2CCC3C(C)(C)C(O[C@@H]4O[C@@H](CO)[C@H](O)[C@H]4O)CCC3(C)C2CC1O[C@@H]1O[C@H](C)[C@H](O)[C@H](O)[C@H]1O` (some centres not stated): the activity change, negative = inhibition was 2.12% in experiment [1]; -0.251% in experiment [2]; 4.84% in experiment [3]; -12.4% in experiment [4]; 1.07% in experiment [5].
